Experimental data published in the supplement of paper PMC8728848.
The other results are listed elsewhere or left out.

Tests used:
Test in all cases: glycan array binding signal (z-score within array); higher = stronger binding
Details in all cases: glycan notation: IUPAC condensed, linker removed
Fuc(a1-2)Gal = target: Fuc(a1-2)Gal
Method in brief: (§1)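 Negative Z-scores can be read as non-binding. The Z-score is calculated within each array and then averaged across arrays of one protein sequence at different concentrations or buffers and across linkers. Arrays, 3228 in all, were curated from the Consortium for Functional Glycomics database and kept only where the protein sequence was available.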

Fuc(a1-2)Gal(b1-3)GalNAc = target: Fuc(a1-2)Gal(b1-3)GalNAc
Method in brief: as §1

[1] = target: Fuc(a1-2)Gal(b1-3)GalNAc(a1-3)[Fuc(a1-2)]Gal(b1-4)Glc
Method in brief: as §1

[2] = target: Fuc(a1-2)Gal(b1-3)GalNAc(a1-3)[Fuc(a1-2)]Gal(b1-4)GlcNAc
Method in brief: as §1

[3] = target: Fuc(a1-2)Gal(b1-3)GalNAc(b1-3)Gal
Method in brief: as §1

[4] = target: Fuc(a1-2)Gal(b1-3)GalNAc(b1-3)Gal(a1-4)Gal(b1-4)Glc
Method in brief: as §1

[5] = target: Fuc(a1-2)Gal(b1-3)GalNAc(b1-4)[Neu5Ac(a2-3)]Gal(b1-4)Glc
Method in brief: as §1

Fuc(a1-2)Gal(b1-3)GlcNAc = target: Fuc(a1-2)Gal(b1-3)GlcNAc
Method in brief: as §1

[6] = target: Fuc(a1-2)Gal(b1-3)GlcNAc(b1-2)Man(a1-3)[Fuc(a1-2)Gal(b1-3)GlcNAc(b1-2)Man(a1-6)]Man(b1-4)GlcNAc(b1-4)GlcNAc
Method in brief: as §1

[7] = target: Fuc(a1-2)Gal(b1-3)GlcNAc(b1-2)Man(a1-3)[Fuc(a1-2)Gal(b1-3)GlcNAc(b1-2)Man(a1-6)]Man(b1-4)GlcNAc(b1-4)[Fuc(a1-6)]GlcNAc
Method in brief: as §1

[8] = target: Fuc(a1-2)Gal(b1-3)GlcNAc(b1-3)Gal(b1-4)Glc
Method in brief: as §1

[9] = target: Fuc(a1-2)Gal(b1-3)GlcNAc(b1-3)GalNAc
Method in brief: as §1

[10] = target: Fuc(a1-2)Gal(b1-3)GlcNAc(b1-3)[Fuc(a1-2)Gal(b1-3)GlcNAc(b1-6)]GalNAc
Method in brief: as §1

[11] = target: Fuc(a1-2)Gal(b1-3)GlcNAc(b1-3)[Gal(b1-4)GlcNAc(b1-6)]Gal(b1-4)Glc
Method in brief: as §1

[12] = target: Fuc(a1-2)Gal(b1-3)GlcNAc(b1-3)[Neu5Ac(a2-6)Gal(b1-4)GlcNAc(b1-6)]Gal(b1-4)Glc
Method in brief: as §1

[13] = target: Fuc(a1-2)Gal(b1-3)GlcNAc6S
Method in brief: as §1

[14] = target: Fuc(a1-2)Gal(b1-3)[Fuc(a1-4)]GlcNAc
Method in brief: as §1

[15] = target: Fuc(a1-2)Gal(b1-3)[Fuc(a1-4)]GlcNAc(b1-2)Man(a1-3)[Fuc(a1-2)Gal(b1-3)[Fuc(a1-4)]GlcNAc(b1-2)Man(a1-3)]Man(b1-4)GlcNAc(b1-4)GlcNAc
Method in brief: as §1

[16] = target: Fuc(a1-2)Gal(b1-3)[Fuc(a1-4)]GlcNAc(b1-2)Man(a1-3)[Fuc(a1-2)Gal(b1-3)[Fuc(a1-4)]GlcNAc(b1-2)Man(a1-6)]Man(b1-4)GlcNAc(b1-4)[Fuc(a1-6)]GlcNAc(b1-4)[Fuc(a1-6)]GlcNAc
Method in brief: as §1

[17] = target: Fuc(a1-2)Gal(b1-3)[Fuc(a1-4)]GlcNAc(b1-3)[Fuc(a1-3)[Gal(b1-4)]GlcNAc(b1-6)]Gal(b1-4)Glc
Method in brief: as §1

[18] = target: Fuc(a1-2)Gal(b1-3)[Fuc(a1-4)]GlcNAc(b1-3)[Gal(b1-4)GlcNAc(b1-6)]Gal(b1-4)Glc
Method in brief: as §1

[19] = target: Fuc(a1-2)Gal(b1-4)Fuc(a1-3)]GlcNAc(b1-2)Man(a1-3)[Fuc(a1-2)Gal(b1-4)[Fuc(a1-3)]GlcNAc(b1-2)Man(a1-6)]Man(b1-4)GlcNAc(b1-4)GlcNAc
Method in brief: as §1

Fuc(a1-2)Gal(b1-4)Glc = target: Fuc(a1-2)Gal(b1-4)Glc
Method in brief: as §1

Fuc(a1-2)Gal(b1-4)Glc6S = target: Fuc(a1-2)Gal(b1-4)Glc6S
Method in brief: as §1

Fuc(a1-2)Gal(b1-4)GlcNAc = target: Fuc(a1-2)Gal(b1-4)GlcNAc
Method in brief: as §1

[20] = target: Fuc(a1-2)Gal(b1-4)GlcNAc(b1-2)Man
Method in brief: as §1

[21] = target: Fuc(a1-2)Gal(b1-4)GlcNAc(b1-2)Man(a1-3)[Fuc(a1-2)Gal(b1-4)GlcNAc(b1-2)Man(a1-6)]Man(b1-4)GlcNAc(b1-4)GlcNAc
Method in brief: as §1

[22] = target: Fuc(a1-2)Gal(b1-4)GlcNAc(b1-2)Man(a1-3)[Fuc(a1-2)Gal(b1-4)GlcNAc(b1-2)Man(a1-6)]Man(b1-4)GlcNAc(b1-4)[Fuc(a1-6)]GlcNAc
Method in brief: as §1

[23] = target: Fuc(a1-2)Gal(b1-4)GlcNAc(b1-2)[Fuc(a1-2)Gal(b1-4)GlcNAc(b1-4)]Man(a1-3)[Fuc(a1-2)Gal(b1-4)GlcNAc(b1-2)Man(a1-6)]Man(b1-4)GlcNAc(b1-4)GlcNAc
Method in brief: as §1

[24] = target: Fuc(a1-2)Gal(b1-4)GlcNAc(b1-3)Gal(b1-4)GlcNAc
Method in brief: as §1

[25] = target: Fuc(a1-2)Gal(b1-4)GlcNAc(b1-3)Gal(b1-4)GlcNAc(b1-2)Man(a1-3)[Fuc(a1-2)Gal(b1-4)GlcNAc(b1-3)Gal(b1-4)GlcNAc(b1-2)Man(a1-6)]Man(b1-4)GlcNAc(b1-4)GlcNAc
Method in brief: as §1

[26] = target: Fuc(a1-2)Gal(b1-4)GlcNAc(b1-3)Gal(b1-4)GlcNAc(b1-3)Gal(b1-4)GlcNAc
Method in brief: as §1

[27] = target: Fuc(a1-2)Gal(b1-4)GlcNAc(b1-3)GalNAc
Method in brief: as §1

[28] = target: Fuc(a1-2)Gal(b1-4)GlcNAc(b1-3)[Fuc(a1-2)Gal(b1-4)GlcNAc(b1-6)]GalNAc
Method in brief: as §1

[29] = target: Fuc(a1-2)Gal(b1-4)GlcNAc(b1-3)[Fuc(a1-3)[Gal(b1-4)]GlcNAc(b1-6)]Gal(b1-4)Glc
Method in brief: as §1

[30] = target: Fuc(a1-2)Gal(b1-4)GlcNAc(b1-6)GalNAc
Method in brief: as §1

[31] = target: Fuc(a1-2)Gal(b1-4)GlcNAc6S
Method in brief: as §1

[32] = target: Fuc(a1-2)Gal(b1-4)[Fuc(a1-3)]GlcNAc
Method in brief: as §1

[33] = target: Fuc(a1-2)Gal(b1-4)[Fuc(a1-3)]GlcNAc(b1-2)Man(a1-3)[Fuc(a1-2)Gal(b1-4)[Fuc(a1-3)]GlcNAc(b1-2)Man(a1-6)]Man(b1-4)GlcNAc(b1-4)[Fuc(a1-6)]GlcNAc
Method in brief: as §1

[34] = target: Fuc(a1-2)Gal(b1-4)[Fuc(a1-3)]GlcNAc(b1-2)[Fuc(a1-2)Gal(b1-4)[Fuc(a1-3)]GlcNAc(b1-4)]Man(a1-3)[Fuc(a1-2)Gal(b1-4)[Fuc(a1-3)]GlcNAc(b1-2)Man(a1-6)]Man(b1-4)GlcNAc(b1-4)GlcNAc
Method in brief: as §1

[35] = target: Fuc(a1-2)Gal(b1-4)[Fuc(a1-3)]GlcNAc(b1-3)Gal(b1-4)[Fuc(a1-3)]GlcNAc
Method in brief: as §1

[36] = target: Fuc(a1-2)Gal(b1-4)[Fuc(a1-3)]GlcNAc(b1-3)Gal(b1-4)[Fuc(a1-3)]GlcNAc(b1-3)Gal(b1-4)[Fuc(a1-3)]GlcNAc
Method in brief: as §1

[37] = target: Fuc(a1-2)Gal(b1-4)[Fuc(a1-3)]GlcNAc(b1-3)GalNAc
Method in brief: as §1

[38] = target: Fuc(a1-2)Gal(b1-4)[Fuc(a1-3)]GlcNAc(b1-3)[Neu5Ac(a2-6)Gal(b1-4)GlcNAc(b1-6)]Gal(b1-4)Glc
Method in brief: as §1

[39] = target: Fuc(a1-2)Gal3S(b1-4)GlcNAc
Method in brief: as §1

B1: HML-Native (Hypnea musciformis), P84871 (protein)
chain: QKFCTLDIAPVCCQIVIGGGMYTAGNACMCEGFVSGVGRCENPKECPCTREAQIPSCCSSRWGLVSVTGKCACDCLGGTVAFPEPCPSPY
glycan array binding signal (z-score) (Fuc(a1-2)Gal): -0.262 | glycan array binding signal (z-score) (Fuc(a1-2)Gal(b1-3)GalNAc): -0.269 | glycan array binding signal (z-score) [1]: -0.253 | glycan array binding signal (z-score) [2]: -0.278 | glycan array binding signal (z-score) [3]: -0.098 | glycan array binding signal (z-score) [4]: -0.207 | glycan array binding signal (z-score) [5]: -0.224 | glycan array binding signal (z-score) (Fuc(a1-2)Gal(b1-3)GlcNAc): -0.288 | glycan array binding signal (z-score) [6]: 0.013 | glycan array binding signal (z-score) [7]: 2.85 | glycan array binding signal (z-score) [8]: -0.231 | glycan array binding signal (z-score) [9]: -0.258 | glycan array binding signal (z-score) [10]: -0.249 | glycan array binding signal (z-score) [11]: -0.256 | glycan array binding signal (z-score) [12]: -0.216 | glycan array binding signal (z-score) [13]: -0.215 | glycan array binding signal (z-score) [14]: -0.221 | glycan array binding signal (z-score) [15]: -0.12 | glycan array binding signal (z-score) [16]: 3.06 | glycan array binding signal (z-score) [17]: -0.188 | glycan array binding signal (z-score) [18]: -0.199 | glycan array binding signal (z-score) [19]: -0.144 | glycan array binding signal (z-score) (Fuc(a1-2)Gal(b1-4)Glc): -0.237 | glycan array binding signal (z-score) (Fuc(a1-2)Gal(b1-4)Glc6S): -0.169 | glycan array binding signal (z-score) (Fuc(a1-2)Gal(b1-4)GlcNAc): -0.273 | glycan array binding signal (z-score) [20]: -0.193 | glycan array binding signal (z-score) [21]: 0.004 | glycan array binding signal (z-score) [22]: 1.81 | glycan array binding signal (z-score) [23]: -0.072 | glycan array binding signal (z-score) [24]: -0.17 | glycan array binding signal (z-score) [25]: 0.017 | glycan array binding signal (z-score) [26]: -0.329 | glycan array binding signal (z-score) [27]: -0.11 | glycan array binding signal (z-score) [28]: -0.119 | glycan array binding signal (z-score) [29]: -0.17 | glycan array binding signal (z-score) [30]: -0.124 | glycan array binding signal (z-score) [31]: -0.271 | glycan array binding signal (z-score) [32]: -0.079 | glycan array binding signal (z-score) [33]: 3.87 | glycan array binding signal (z-score) [34]: -0.059 | glycan array binding signal (z-score) [35]: -0.168 | glycan array binding signal (z-score) [36]: -0.277 | glycan array binding signal (z-score) [37]: -0.185 | glycan array binding signal (z-score) [38]: -0.222 | glycan array binding signal (z-score) [39]: -0.202
